{"source": "PubChem BioAssay (Tox21)", "note": "Values joined by “and” are separate entries in the source; they are usually repeats but may differ in a detail not shown here. Equal values may be shown once. This list was built around the results that the source calls inconclusive (neither active nor inactive); the mix of calls is not that of the screen. Where the call is inconclusive, the potency comes from a doubtful curve fit. Active and inactive are the calls of the source. Calls come from the whole dose curve; as a rule, active = well fitted curve in the direction sought with a large enough effect in the repeat runs; inconclusive = weak or mixed curves; inactive = no such curve, though single readings can be large; an effect the other way counts as inactive or inconclusive. Potency is the fitted concentration of half-maximal effect; tags give direction and shape of the fitted curve.", "data": [{"assay": "qHTS assay to identify small molecule antagonists of the androgen receptor (AR) signaling pathway using the MDA cell line - cell viability counter screen (AID 743041; note: nearly all actives have a fitted effect of over 45% in size; for viability change, negative = cytotoxic: % is set by controls: 0 for no effect and ±100 for the full control effect)", "conditions": "MDA-kb2 viability, CellTiter-Fluor, 16 h, cells co-treated with R1881 androgen agonist; viability change, negative = cytotoxic: at 70.3 µM (top of the series) unless noted", "in_short": "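Viability read by CellTiter-Fluor fluorescence in the same wells as the antagonist screen, added after 15.5 h of a 16 h, 37C exposure. Human breast carcinoma MDA-kb2 AR-luc cells, compounds co-dosed with agonist R1881.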", "values": [{"compound": "CN(C)CCN(Cc1cccs1)c1ccccn1", "Potency": "inconclusive: 0.237 µM [rising, full curve, poor fit]"}, {"compound": "CCCCCCCCCCOCC(O)CN", "note": "(stereo unspecified)", "Potency": "inconclusive: 33.5 µM [cytotoxic, single point]"}, {"compound": "CCCCOCCOCCOCc1cc2c(cc1CCC)OCO2", "Potency": "inconclusive: 12.3 µM [rising, full curve]"}, {"compound": "CC[C@H](c1ccc(O)cc1)[C@@H](CC)c1ccc(O)cc1", "Potency": "inconclusive: 68.6 µM [cytotoxic]"}, {"compound": "CC(=O)Nc1ccc(C(=O)CCl)cc1", "Potency": "inconclusive: 68.6 µM [cytotoxic, single point]", "viability change, negative = cytotoxic": "inconclusive: -34.4% [cytotoxic] [at 95 µM]"}, {"compound": "O=C1c2c(O)ccc(O)c2C(=O)c2c(NCCNCCO)ccc(NCCNCCO)c21", "Potency": "active: 9.43 µM"}]}, {"assay": "qHTS assay to identify small molecule antagonists of the thyroid receptor (TR) signaling pathway - cell viability counter screen (AID 743064); note: nearly all actives have a fitted effect of over 50% in size", "conditions": "GH3.TRE-Luc viability, CellTiter-Fluor, 24 h; activity change, negative = cytotoxic: at 70.3 µM (top of the series) unless noted", "in_short": "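CellTiter-Fluor readout, 30 min at 37 °C/5% CO2, following 23.5 h incubation of GH3.TRE-Luc cells with test compound and 1 nM T3 (final).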", "values": [{"compound": "CCOC(=O)O[C@H](C)OC(=O)c1ccc2c(c1)cc(C(=O)NC1CCN(C(C)C)CC1)n2Cc1cc(-c2ccc(Cl)s2)on1", "Potency": "active: 5.09 µM"}, {"compound": "c1ccc2c(c1)-c1cccc3c1c-2cc1ccccc13", "Potency": "inconclusive: 67 µM [rising, single point] and inconclusive: 68.6 µM [rising, single point]"}, {"compound": "CCN(CC)c1ccc2c(C)cc(=O)oc2c1", "Potency": "inconclusive: 27.5 µM [rising, partial curve] and inconclusive: 27.3 µM [rising, partial curve]"}, {"compound": "O=c1n(CC2CO2)c(=O)n(CC2CO2)c(=O)n1CC1CO1", "note": "(stereo unspecified)", "Potency": "inconclusive: 21.1 µM [cytotoxic]"}, {"compound": "CCCCCCOC(=O)c1ccc(O)cc1", "Potency": "inconclusive: 68.7 µM [cytotoxic, single point]"}, {"compound": "CN(C)CCN(Cc1cccs1)c1ccccn1", "Potency": "inconclusive: 18.8 µM [cytotoxic, partial curve] and inconclusive: 60.8 µM [cytotoxic]"}, {"compound": "CCCCOCCOCCOCc1cc2c(cc1CCC)OCO2", "Potency": "inconclusive: 41.1 µM"}, {"compound": "CC[C@H](c1ccc(O)cc1)[C@@H](CC)c1ccc(O)cc1", "Potency": "inconclusive: 14.3 µM [cytotoxic, single point]"}, {"compound": "O=C1c2c(O)ccc(O)c2C(=O)c2c(NCCNCCO)ccc(NCCNCCO)c21", "Potency": "active: 0.569 µM"}]}]}
